The record followed here is publication PMC12136788.

This is one part of the list.

B1: chr3:100749155:100750494:-|three_prime_utr|ENSG00000154175|control|control|control (ssRNA)
RNA: GGGAGUUCUACAGUCCGACGAUCUGCCGCAUUCAUUUAAAGCUAUUUUGUUUACUAUGUAUAAAAGUCUACAAUCUAAUUAAUAGCAAUACUAGAUGUUUAUUAUUAGAAAAGAUUGCUGAGAGUAUUUAUCAGGUUUUACAACAACAGAGGAUUGAGCAUCA
B2: ENSG00000107863:be:win_2301|CDS|ENSG00000107863|bound_else_gene|NA|bound_elsewhere_windowed (ssRNA)
RNA: GGGAGUUCUACAGUCCGACGAUCAGACACUACCUGCUGGCUGCCCAAUGAUGCACGUCGAGAGGUCCACAUAAAAAGAAUGGAGGAAAGAAAAGCCUCGAGUACCAGUCCGCCUGGCGAUUCUUUGGCUUCCAUCCCAUUUAUCAACAGAGGAUUGAGCAUCA
B3: chr20:53567570:53567671:-|3pUTR|ENSG00000171940|unk|total|mutant (ssRNA)
RNA: GGGAGUUCUACAGUCCGACGAUCUCACAAGCUGAGCCAUAUGUACAUAAUCCCGAUUUUGUUUUCACCGUUUUGCACUUUUACCGCCUAUUUUUGAAGAUUAACACAUUUGCAAGAUGAUUGACUCAAUCUUUGCCUAAUCCACAACAGAGGAUUGAGCAUCA
B4: chr5:55135756:55136053:-|three_prime_utr|ENSG00000164287|control|control|control (ssRNA)
RNA: GGGAGUUCUACAGUCCGACGAUCGAAUUGCUUGAACCAGGGAGGCGGAAGUUGCAGUGAGCUGAGACCGUGCCACUGCUCUCUAGCUUGGCUGACAGAGUGAGACUCUGUCUCAAAAAAAAAAAUAUUUUUUUUGGAAAUUUUCAACAGAGGAUUGAGCAUCA
B5: chr15:63694043:63694144:-|CDS|ENSG00000103657|unk|total|mutant (ssRNA)
RNA: GGGAGUUCUACAGUCCGACGAUCAGGACCUAUGCUGAUAAACUGAGUCCCAAAGCCGUUCAAUCCUUGUUGGAUCUACUCUGCCGUCAGUUGAAGAAUUUAUUGUCCCAAACUGGUGUACUACAUAUGGCCUCUUUCGGAGAACAACAGAGGAUUGAGCAUCA
B6: chr5:32419879:32419980:-|CDS|ENSG00000056097|msi1|FALSE|unique (ssRNA)
RNA: GGGAGUUCUACAGUCCGACGAUCAGUUACUGCUGCCUAUGCACCAGCAGCCGCCACAGUUGCAGUUGCCAGGCCUGCUCCAGUAGCUGUUGCAGCUGCUGCAACAGCUGCUGCUUAUGGAGGCUACCCCACUGCACACACAGCCAACAGAGGAUUGAGCAUCA
B7: chr13:24435137:24435247:-|CDS|ENSG00000102699|unk|total|mutant (ssRNA)
RNA: GGGAGUUCUACAGUCCGACGAUCAAACCAACAGCAACUGAACCACUAUUUAAGAAAGUCAGUCCAUGGGAAACAUCUACUUCCCGCUUUUUUCCUAUUUUGGCUCCGGCCGUUGGUUCCUAUCUUCCCCCGACUGCCCGCGCUCAACAGAGGAUUGAGCAUCA
B8: ENSG00000070961:be:win_5351|3pUTR|ENSG00000070961|bound_else_gene|NA|bound_elsewhere_windowed (ssRNA)
RNA: GGGAGUUCUACAGUCCGACGAUCUCACCAGAUACACAAUCCUCAGGCUGACAUAAAGUUUACGAGGACUGCUACUAUAACUGAGAGUGCUGACCAAGCAAAGAAACAUUUAGUUGAUGGUGCUUGAUAUUUUUGGUGGGUGGGCAACAGAGGAUUGAGCAUCA
B9: chr3:152462637:152462738:+|3pUTR|ENSG00000152601|msi1|FALSE|unique (ssRNA)
RNA: GGGAGUUCUACAGUCCGACGAUCGAACAACAUUGUCUUUCUUUUCUAGCACAGAGUUAUGCAUUCAAAGAUGCAUACCUAGUUAGUUUCCUAUAUAUUCAUGCCAUCUUGAAAAGACAGACUAUGGUGUAACCAUGAUUCUAUCAACAGAGGAUUGAGCAUCA
B10: ENSG00000136451:be:win_2501|3pUTR|ENSG00000136451|bound_else_gene|NA|bound_elsewhere_windowed (ssRNA)
RNA: GGGAGUUCUACAGUCCGACGAUCUCCCAAUCAGAGCCUGUUGAUAUUACAACAGGGACAGAUGUGUUAGUUGCUCACUAGAGUUUAUGUCUUAUAUUAAAUUGUAUACAGUUUUUAUUCUAACCACUAACUAGGUAGUGUAUGCAACAGAGGAUUGAGCAUCA
B11: ENSG00000070961:be:win_3551|CDS_3pUTR|ENSG00000070961|bound_else_gene|NA|bound_elsewhere_windowed (ssRNA)
RNA: GGGAGUUCUACAGUCCGACGAUCACAAAAAUAACAAUGCUGUUGACAGUGGAAUUCACCUUACAAUAGAAAUGAACAAGUCUGCUACCUCUUCAUCCCCAGGAAGCCCACUACAUAGUUUGGAAACAUCACUCUGAUUGUAAGCAACAGAGGAUUGAGCAUCA
B12: chr2:171983412:171983537:+|3pUTR|ENSG00000128708|unk|FALSE|unique (ssRNA)
RNA: GGGAGUUCUACAGUCCGACGAUCUGAUGACUUUAAUUUUAAAAUCUUGUGACAUUUUGCUUAUACUAAAAGUUAUCUAUCUUUAGUUGAAUAUUUUCUUUUGGAGAGAUUGUAUAUUUUAAAAUACUGUUUAGAGUUUAUGAGCAACAGAGGAUUGAGCAUCA
B13: chr14:106088121:106088428:-|CDS|ENSG00000282639|control|control|control (ssRNA)
RNA: GGGAGUUCUACAGUCCGACGAUCGUCCGCCAGGCUCCAGGGAAGGGACUGGAAUAUGUUUCAGCUAUUAGUAGUAAUGGGGGUAGCACAUACUACGCAGACUCCGUGAAGGGCAGAUUCACCAUCUCCAGAGACAAUUCCAAGCAACAGAGGAUUGAGCAUCA
B14: ENSG00000136451:be:win_3651|3pUTR|ENSG00000136451|bound_else_gene|NA|bound_elsewhere_windowed (ssRNA)
RNA: GGGAGUUCUACAGUCCGACGAUCGGCAUGCAGACCCAAAACUGGGUUCUGGCUCUGCCUGCUGGGAUCUGUUAUCUCUGGUGGGCUGGCAGUCAUAAUUCACAAUUCAGACAGCCCAGGCUUCCUCCACAGUGGUCCAAGGAGCAACAGAGGAUUGAGCAUCA
B15: chr19:48922626:48922741:+|3pUTR|ENSG00000104805|msi1|total|mutant (ssRNA)
RNA: GGGAGUUCUACAGUCCGACGAUCUCCUCCGAGGGGCUUGCCUUCUCUCGUGUCCAGUGAGGUGCUCAGUGAUCGGCUUAACUCCGAGAAGCCCGCCCCCUCCCCUUCUCCGUCUGUCCCAAGAGGGUCUGCUCUGAGCCUGCGCAACAGAGGAUUGAGCAUCA
B16: chr9:124811826:124811928:+|3pUTR|ENSG00000185585|msi1|FALSE|unique (ssRNA)
RNA: GGGAGUUCUACAGUCCGACGAUCAAGAAAUUUUCUAGCCCAACUCCCUGUUUCAUGAAAGAGAAAAGAGGCUCAGAAAAGUUUAGAGAGCAGCUCAGUGUCACACUGGGAGCUGGGCACAGCCGAUCUCCUUCCAGAAGGGUUCAACAGAGGAUUGAGCAUCA
B17: chr6:83525322:83525423:+|3pUTR|ENSG00000146250|msi1|total|mutant (ssRNA)
RNA: GGGAGUUCUACAGUCCGACGAUCACAAUUACAAUGUGUAUUAUUUAAAAAUGGGAGAAACCGUUUGUUCUAUGAAAUAAACCCCGUUCCGAAACCGGGAAGCUGAGACAUUUUAAGAUCUCAAGUUUUUAUUUAACUAAUACUCAACAGAGGAUUGAGCAUCA
B18: chr3:27418507:27418620:-|CDS|ENSG00000033867|unk|FALSE|bound_elsewhere (ssRNA)
RNA: GGGAGUUCUACAGUCCGACGAUCUGAUGUAGCUUAUAAAGCAAAAGACAGAAAUGACCUCUUAUCUGGAAUUGAUGAAUUUUUAGAUCAAGUAACUGUCCUACCUCCAGGAGAGUGGGAUCCUUCUAUACGCAUAGAACCACCCAACAGAGGAUUGAGCAUCA
B19: chr11:118254921:118255022:-|3pUTR|ENSG00000149573|unk|FALSE|unique (ssRNA)
RNA: GGGAGUUCUACAGUCCGACGAUCACAGCCUCAUUAUUAAGGUCUUAUUUAAUUUCAGAGUGUAAAUUUUUUCAAGUGCUCAUUAGGUUUUAUAAACAAGAAGCUACAUUUUUGCCCUUAAGACACUACUUACAGUGUUAUGACCAACAGAGGAUUGAGCAUCA
B20: chr15:48879495:48879609:+|3pUTR|ENSG00000255302|msi1|total|mutant (ssRNA)
RNA: GGGAGUUCUACAGUCCGACGAUCGACACUAAAUGUGUGUGAAUGUACAAAGAAAACAAACCAUUGCUUAUGCUGUUAUAUACCCGAGAAAUUUUGUUUUGCUUGCUGUUUUAACUUGACAGAUGAAGGACUUCCGUUGAACUUCAACAGAGGAUUGAGCAUCA
B21: chr11:123753582:123754518:-|CDS|ENSG00000221931|control|control|control (ssRNA)
RNA: GGGAGUUCUACAGUCCGACGAUCGUGGUGUCUGUGCUAAAUACUAUCCUCACCCCCCUUCUGAAUCCCUUUAUUUAUACUAUUAGAAACAAGGAGGUGAAGGGAGCCUUAAGAAAGGCAAUGACUUGCCCAAAGACUGGUCAUCAACAGAGGAUUGAGCAUCA
B22: chr16:57471571:57471634:+|3pUTR|ENSG00000102978|msi1_unk|total|mutant (ssRNA)
RNA: GGGAGUUCUACAGUCCGACGAUCACCGCCUUUAUUCAGGGGGCCUAUAAACCCUUCCAGUUCUUGCCCCAGGGCUGGCCUGCCCGCGCUUCAAAUUCCCAGGUGUCCCUAAUUUGAGAAGUAACCUUUUGGAACCGCAUCCGACAACAGAGGAUUGAGCAUCA

The target in the assay is MSI1 full-length (mouse, UniProt Q61474 1-362). Description: nsRBNS (natural sequence RNA bind-n-seq); RBNS binding buffer (assumed for nsRBNS): 25 mM Tris pH 7.5, 150 mM KCl, 3 mM MgCl2, 0.01% Triton X-100, 500 ug/ml BSA, 20 U/ml SUPERase-In, 4 C; UNK is unkempt and MSI1 is Musashi-1; names of the RNAs are library labels; protein concentration not given here; high values mean tight binding.
UniProt Q61474, sequence (Q61474 whole entry): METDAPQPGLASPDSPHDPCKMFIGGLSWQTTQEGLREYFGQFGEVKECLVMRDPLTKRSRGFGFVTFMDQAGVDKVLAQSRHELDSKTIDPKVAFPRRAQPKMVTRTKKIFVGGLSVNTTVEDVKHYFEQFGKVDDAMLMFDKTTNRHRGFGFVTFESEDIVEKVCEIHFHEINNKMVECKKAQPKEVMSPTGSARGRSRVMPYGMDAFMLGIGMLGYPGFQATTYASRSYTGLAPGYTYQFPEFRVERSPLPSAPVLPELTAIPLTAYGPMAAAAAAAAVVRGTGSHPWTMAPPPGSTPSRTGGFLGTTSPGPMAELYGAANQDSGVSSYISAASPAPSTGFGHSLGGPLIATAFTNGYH
Consider B1, for which the binding signal came out at 4.63 enrichment R.

As to B2, the binding signal amounted to 0.452 enrichment R.

Molecule B3 gave a binding signal of 0.666 enrichment R.

Turning to B4, the binding signal stood at 0.454 enrichment R.

B5 gave a binding signal of 0.265 enrichment R.

Molecule B6 came in with a binding signal of 0.284 enrichment R.

B7 registered a binding signal of 0.396 enrichment R.

As to B8, the binding signal worked out at 0.373 enrichment R.

For B9, the binding signal was 10.2 enrichment R.

Take B10: the binding signal was found to be 25.2 enrichment R.

On to B11, for which the binding signal amounted to 0.698 enrichment R.

Regarding B12, the binding signal was determined as 3.32 enrichment R.

B13 showed a binding signal of 1.24 enrichment R.

B14 came in with a binding signal of 0.488 enrichment R.

Turning to B15, the binding signal stood at 0.734 enrichment R.

Consider B16, for which the binding signal was determined as 0.831 enrichment R.

On to B17, for which the binding signal stood at 0.555 enrichment R.

Turning to B18, the binding signal is 0.49 enrichment R.

With B19, the binding signal turned out to be 4.49 enrichment R.

B20 registered a binding signal of 0.368 enrichment R.

Take B21: the binding signal was 2.68 enrichment R.

B22 gave a binding signal of 0.649 enrichment R.
